Assay results as given in patent US20220073613A1, “ACTIVATABLE MASKED ANTI-CTLA4 BINDING PROTEINS” (Xilio Development, Inc., priority 2018, published 2022).

Biological target: human CTLA4-Fc (R&D Systems, #7268-CT) (human) (UniProt P16410)
Experiment: ELISA: plate coated with human CTLA4-Fc (R&D Systems), detection anti-huKappa-HRP, chemiluminescence; masked antibody 1 after overnight incubation with Matriptase (Example 5)

Chain of UniProt P16410 (P16410 36-162 limits assumed): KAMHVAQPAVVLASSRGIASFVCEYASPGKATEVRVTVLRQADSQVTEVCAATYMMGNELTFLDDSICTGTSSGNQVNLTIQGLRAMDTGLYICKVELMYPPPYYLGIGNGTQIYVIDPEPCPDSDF

B1: humanized masked anti-CTLA4 antibody 1 after protease activation (Matriptase) (antibody, part only; not given: cleaved mask remnants unclear, not shown: another chain or arm of the molecule; small tags and cut ends)
light: DIVMTQTPLSLSVTPGQPASISCRSSQSLLNSDGNTYLYWYLQKPGQSPQLLIYLVSKLGSGVPNRFSGSGSGTDFTLKISRVEAEDVGVYYCVQGTHDPWTFGGGTKVEIKRTVAAPSVFIFPPSDEQLKSGTASVVCLLNNFYPREAKVQWKVDNALQSGNSQESVTEQDSKDSTYSLSSTLTLSKADYEKHKVYACEVTHQGLSSPVTKSFNRGEC
heavy: QVQLQESGPGLVKPSETLSLTCSVTYHTITSGYDWTWIRKPPGKGMEWIGYISYSGNTNYNPSLKSRVTISRDTSKNQFFLKLSSVTAADTAVYYCASMMVPHYYVMDAWGQGTLVTVSS[human IgG1 constant region left out here]
**Q.** For B1, which EC50 (read off the curve) is on record?
**A.** The EC50 (read off the curve) was 1 nM.
